The campaign covered roughly 48,000 compounds. About 450 (0.94%) were called active. The shares of active, inactive and inconclusive entries below differ from those in the screen. Calls come from the whole dose curve; as a rule, active = well fitted inhibition curve with a large enough effect; inconclusive = small, poorly fitted or top-dose-only effect; inactive = no such curve, though single readings can be large or run the other way. Where the call is inconclusive, the potency comes from a doubtful curve fit.
Test: Primary qHTS for Identification of Small Molecule Inhibitors of Huntingtin Promoter Activity; note: nearly all actives have a fitted effect of over 50% in size
Conditions: HEK293 HTT promoter firefly luciferase reporter (activity 0% = vehicle and -100% = no light), 24 h; series mostly up to 57.5 µM
How it was run: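 Firefly luciferase readout (Dual-Glo, 10 min RT) after 24 h, 37 °C compound exposure (final up to 57.5 uM) of HEK293 reporter cells cultured 24 h beforehand; PTC124 at 50 uM final as control inhibitor; activity scaled vehicle 0%, zero RLU -100%.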
Potency is the fitted concentration of half-maximal effect; tags give direction and shape of the fitted curve.

Potency, inactive:
CN(C)CCN(Cc1cccs1)c1ccccn1
COc1cn(CC(=O)Nc2cc(C)cc(C)c2)c(CN2CCCCC2)cc1=O
Nc1ccc(C(=O)c2cc3c(ccc4ccccc43)[nH]2)cc1

Potency, inconclusive:
CC(=O)NCC(=O)N1[C@H]2CC[C@H]1c1cc(Nc3ncc(C(F)(F)F)c(NC4CCC4)n3)ccc12 2.43 µM [inhibitor, full curve]
COc1cccc(-c2nc(CS(=O)(=O)CC(=O)N3CCN(c4ccccc4)CC3)c(C)o2)c1 35.5 µM [inhibitor, single point]
CCN1CCN(CCCNC(=O)Cn2c(-c3cccs3)cc3cc(Cl)ccc32)CC1 35.5 µM [inhibitor, single point]
O=S(=O)(Nc1ccc(O)c(Sc2nc3ccccc3s2)c1)c1cc(Cl)ccc1Cl 0.178 µM [inhibitor, partial curve, poor fit]
CCOc1ccc(-n2ccnc2SCC(=O)Nc2cc(C)ccc2C)cc1 39.8 µM [inhibitor, single point]
COc1c(OCCCN2CCOCC2)ccc2c3n(c(=NC(=O)c4cnc(N)nc4)nc12)CCN3 0.53 µM [inhibitor, full curve]
CCOCc1cc(CN2CCN(c3cccc(C(F)(F)F)c3)CC2)c(O)c2ncccc12 28.2 µM [inhibitor, partial curve, poor fit]
COc1cccc(-n2c(SCc3cccc(C)c3)nc3c([nH]c4ccccc43)c2=O)c1 22.4 µM [inhibitor, partial curve]
CCOc1ccccc1NC(=O)COC(=O)CC(C)(C)CC1=NS(=O)(=O)c2ccccc2N1 22.4 µM [inhibitor, partial curve, poor fit]
Cc1onc(-c2ccccc2Cl)c1C(=O)Oc1ccc(Cl)cc1Cl 39.8 µM [inhibitor, single point]
COc1ccc(N(C(=O)c2ccccc2C)S(=O)(=O)c2ccc(Cl)cc2)cc1 35.5 µM [inhibitor, partial curve, poor fit]
CN1C(C(=O)Nc2cccc(O)c2)=CC(c2cccs2)=NS1(=O)=O 25.1 µM [inhibitor, partial curve, poor fit]
O=C(NCCc1nc2ccccc2n1Cc1ccccc1F)c1ccc(F)cc1 20 µM [inhibitor, partial curve, poor fit]
O=C(Nc1cc(Cl)cc(Cl)c1)c1cc(S(=O)(=O)NC2CCCC2)ccc1F 31.6 µM [inhibitor, partial curve, poor fit]
CCC(C)S(=O)(=O)c1oc(-c2cccs2)nc1S(=O)(=O)c1ccccc1 (stereo unspecified) 39.8 µM [inhibitor, single point]
CCOc1ccc(NC(=O)CN(Cc2ccccc2)S(=O)(=O)c2ccc3nc(C)sc3c2)cc1 39.8 µM [inhibitor, partial curve, poor fit]
CCOc1ccc(CCNC(=O)Cn2c(-c3cccs3)cc3ccccc32)cc1 31.6 µM [inhibitor, single point]
CN(c1ccc(F)cc1)S(=O)(=O)N1CCCC(C(=O)NCc2ccccc2Cl)C1 (stereo unspecified) 31.6 µM [inhibitor, single point]
CCN1CCc2c(sc(NC(=O)c3ccc(S(=O)(=O)N4CCCC(C)C4)cc3)c2C(=O)OC)C1 (stereo unspecified) 25.1 µM [inhibitor, partial curve, poor fit]
CCCCN(C)C(=O)c1ccc2c(=O)n3nc(Nc4cc(C)ccc4C)sc3nc2c1 25.1 µM [inhibitor, single point]
CCOc1ccc(NS(=O)(=O)c2ccc3c(c2)NC(=O)CCS3)cc1 14.1 µM [inhibitor, partial curve]
Cc1ccc(-c2cn3nc(N4CCCC(C(=O)NCc5ccccc5F)C4)sc3n2)cc1 (stereo unspecified) 22.4 µM [inhibitor, single point]
CC1=C(C(=O)OC2CCCC2)C(c2c(F)cccc2Cl)CC(=O)N1 (stereo unspecified) 39.8 µM [inhibitor, single point]
Cc1ccc(CNC(=O)c2ccc3c(c2)CCN3S(=O)(=O)c2ccc(Br)cc2)cc1 17.8 µM [inhibitor, partial curve, poor fit]
Clc1ccc(C(Cn2ccnc2)OCc2c(Cl)cccc2Cl)c(Cl)c1 (stereo unspecified) 43.2 µM [inhibitor, partial curve, poor fit]
CCN(c1ccc(OC)cc1)S(=O)(=O)c1ccc2[nH]c3c(c2c1)CCCCC3 35.5 µM [inhibitor, single point]
CC(=O)c1ccc(NC(=O)C2CCN(S(=O)(=O)c3ccc4[nH]c5c(c4c3)CCCCC5)CC2)cc1 20 µM [inhibitor, single point]
COc1ccccc1CNC(=O)c1ccc(N2CCCC2)c(NC(=O)NCc2ccc(C)cc2)c1 31.6 µM [inhibitor, partial curve, poor fit]
O=C(CSc1n[nH]c(-c2ccc(F)cc2)n1)N1CCN(c2ccc(F)cc2)CC1 28.2 µM [inhibitor, single point]
COc1ccc(OC)c(NC(=O)c2nc(S(=O)(=O)Cc3ccc(F)cc3)ncc2Cl)c1 39.8 µM [inhibitor, single point]
CC(C)n1nc(-c2cc3cc(O)ccc3[nH]2)c2c(N)ncnc21 1.41 µM [inhibitor, full curve, poor fit]
CCOCCCN(Cc1ccco1)C(=O)c1cc2c(s1)-c1c(C)cccc1OC2 35.5 µM [inhibitor, single point]
Cc1ccc(NC(=O)CN(Cc2ccccc2)S(=O)(=O)c2ccc3nc(C)sc3c2)c(C)c1 31.6 µM [inhibitor, single point]

Source: PubChem BioAssay AID1508623 (National Center for Advancing Translational Sciences (NCATS), 2021)
